Experimental data as given in publication PMC6021437.
No constants are given. Whether binding was seen depends on the method and setting. Binding seen in cells or lysates may run through a third protein. Some results given as binding are weak or reduced against the parent protein; the word gives no strength.

Amino acid sequences for entries named in this document (tags omitted). A change or cut given only in a name is not applied to a line headed by its entry. Chains listed by the source or under a name are the forms on record and can include a tag or linker.
UniProt Q3KNJ2: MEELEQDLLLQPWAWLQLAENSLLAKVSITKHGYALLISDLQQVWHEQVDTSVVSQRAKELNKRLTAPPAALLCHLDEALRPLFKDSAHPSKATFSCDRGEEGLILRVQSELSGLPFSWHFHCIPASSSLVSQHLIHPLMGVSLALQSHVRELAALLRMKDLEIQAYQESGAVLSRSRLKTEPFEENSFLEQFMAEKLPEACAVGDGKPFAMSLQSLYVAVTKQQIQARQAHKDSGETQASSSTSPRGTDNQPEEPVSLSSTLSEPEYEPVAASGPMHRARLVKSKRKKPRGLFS
3xFlag-XLF (mouse) R178Q/4KA (Q3KNJ2, form named): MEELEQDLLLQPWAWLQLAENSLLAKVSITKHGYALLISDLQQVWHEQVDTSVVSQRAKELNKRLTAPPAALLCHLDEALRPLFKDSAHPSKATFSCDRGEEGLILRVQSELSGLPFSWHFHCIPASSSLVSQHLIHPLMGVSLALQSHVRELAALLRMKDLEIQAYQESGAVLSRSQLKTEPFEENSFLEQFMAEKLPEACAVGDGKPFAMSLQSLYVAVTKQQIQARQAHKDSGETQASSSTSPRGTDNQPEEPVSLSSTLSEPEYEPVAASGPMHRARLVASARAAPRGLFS
3xFlag-XLF (mouse) L115A/4KA (Q3KNJ2, form named): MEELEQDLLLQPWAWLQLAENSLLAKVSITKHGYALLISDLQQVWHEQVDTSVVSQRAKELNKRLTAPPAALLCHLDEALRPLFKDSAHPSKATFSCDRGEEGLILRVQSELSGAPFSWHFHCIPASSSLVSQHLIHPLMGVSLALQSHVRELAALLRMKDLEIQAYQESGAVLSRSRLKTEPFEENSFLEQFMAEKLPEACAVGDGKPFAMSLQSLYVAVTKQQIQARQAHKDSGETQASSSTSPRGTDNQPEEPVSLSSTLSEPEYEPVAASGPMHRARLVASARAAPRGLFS
3xFlag-XLF (mouse) K160D/4KA (Q3KNJ2, form named): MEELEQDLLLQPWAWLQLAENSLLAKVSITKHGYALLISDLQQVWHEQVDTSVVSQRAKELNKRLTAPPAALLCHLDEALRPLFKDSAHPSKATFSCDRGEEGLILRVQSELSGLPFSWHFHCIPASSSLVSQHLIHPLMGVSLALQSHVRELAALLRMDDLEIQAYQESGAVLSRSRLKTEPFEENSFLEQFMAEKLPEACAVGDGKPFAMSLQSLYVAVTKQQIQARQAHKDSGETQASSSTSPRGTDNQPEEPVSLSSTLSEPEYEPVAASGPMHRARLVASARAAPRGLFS
UniProt Q924T3: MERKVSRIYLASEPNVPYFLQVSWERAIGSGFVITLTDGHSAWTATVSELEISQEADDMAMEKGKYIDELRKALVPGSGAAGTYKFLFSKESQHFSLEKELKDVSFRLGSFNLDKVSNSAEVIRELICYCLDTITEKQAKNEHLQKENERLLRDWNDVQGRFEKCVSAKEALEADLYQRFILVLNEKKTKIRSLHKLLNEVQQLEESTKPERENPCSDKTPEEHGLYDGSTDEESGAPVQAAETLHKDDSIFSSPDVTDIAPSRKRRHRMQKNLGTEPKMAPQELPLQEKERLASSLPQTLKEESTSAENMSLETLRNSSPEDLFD

Key:
Test in all cases: co-IP; Flag-IP (anti-FLAG M2 magnetic beads, overnight at 4 °C) from lysates of Xlf-/- mESCs co-transfected with 3xFlag-XLF WT or mutant and pCAGGS-HA-XRCC4; NETN buffer (20 mM TRIS pH 8.0, 100 mM NaCl, 1 mM EDTA, 0.5% IGEPAL, 1.25 mM dithiothreitol) with phosphatase inhibitor; immunoblot for XRCC4
[1] = molecular target: 3xFlag-XLF (mouse), wild type (mouse) (UniProt Q3KNJ2)
[2] = molecular target: 3xFlag-XLF (mouse) R178Q/4KA (mouse) (UniProt Q3KNJ2)
[3] = molecular target: 3xFlag-XLF (mouse) R178Q (mouse) (UniProt Q3KNJ2)
[4] = molecular target: 3xFlag-XLF (mouse) L115A/4KA (mouse) (UniProt Q3KNJ2)
[5] = molecular target: 3xFlag-XLF (mouse) K160D (mouse) (UniProt Q3KNJ2)
[6] = molecular target: 3xFlag-XLF (mouse) 4KA (K284A; K286A; K288A; K289A) (mouse) (UniProt Q3KNJ2)
[7] = molecular target: 3xFlag-XLF (mouse) K160D/4KA (mouse) (UniProt Q3KNJ2)

Question: Which results are given for HA-XRCC4 (from UniProt Q924T3 1-326)?
Answer: binding [1]: binds; binding [2]: binds; binding [3]: binds; binding [4]: no binding; binding [5]: binds; binding [6]: binds; binding [7]: binds
